# Test results published in the supplement of paper PMC12217912.
# This is one part of the list. Sequences were assembled here from the parent chain. Values near 0.05 are background.
# B1: TEV protease; numbered along this chain (parent)
# chain: MGESLFKGPRDYNPISSSICHLTNESDGHTTSLYGIGFGPFIITNKHLFRRNNGTLVVQSLHGVFKVKDTTTLQQHLVDGRDMIIIRMPKDFPPFPQKLKFREPQREERICLVTTNFQTKSMSSMVSDTSCTFPSGDGIFWKHWIQTKDGQCGSPLVSTRDGFIVGIHSASNFTNTNNYFTSVPKNFMELLTNQEAQQWVSGWRLNADSVLWGGHKVFMVKPEEPFQPVKEATQL
# Variants of: B1
# Assay: raw area under fraction-flipped curve 0-4 h after induction (AUC4h, not background-subtracted), DNA-recorder readout of cleavage of the substrate (dimensionless); higher = more cleavage of the substrate by the protease variant
# Details: temperature: 34 °C; time window: 0-4 h after rhamnose induction
# 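Further: Bxb1 expression induced with 0.2% (w/v) L-rhamnose at OD600 near 0.5, cultures sampled hourly, flipped fraction per protease–substrate barcode pair counted by paired-end Illumina sequencing.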
Variant,area with substrate ENCYFQS,area with substrate ENDYFQS,area with substrate ENEYFQS,area with substrate ENGYFQS,area with substrate ENHYFQS,area with substrate ENMYFQS,area with substrate ENNYFQS,area with substrate ENPYFQS,area with substrate ENQYFQS,area with substrate ENRYFQS,area with substrate ENSYFQS,area with substrate ENTYFQS,area with substrate ENVYFQS,area with substrate ENWYFQS,area with substrate ENFYFQS,area with substrate ENIYFQS,area with substrate ENYYFQS,area with substrate ENKYFQS
MGESLFKGPRDYNPISSSICHLTNESDGHTTSLYGIGFGPFIITNKHLFRRNNGTLVVQSLHGVFKVKDTTTLQQHLVDGRDMIIIRMPKDFPPFPQKLKFREPQREERICLVTTNFQTKSMSSMVSDTSCTFPSGDGIFWKHWIQTKDGQCGSPLVSTRDGFIVGIHSASNFTNTNNYFTSVPKNFMELLTNQEAQQWVSGWRLNADSVLWGGQKVFMVKPEEPFQPVKEATQL [H215Q],0.0586,0.0634,0.0619,0.0647,0.0588,0.0511,0.034,0.0278,0.0593,0.0476,0.0558,0.0572,0.0634,0.048,–,–,–,–
MGESLFKGPRDYNPISSSICHLTNESDGHTTSLYGIGFGPFIITNKHLFRRNNGTLVVQSLHGVFKVKDTTTLQQHLVDGRDMIIIRMPKDFPPFPQKLKFREPQREERICLVTTNFQTKSMSSMVSDTSCTFPSGDGIFWKHWIQTKDGQCGSPLVSTRDGFIVGIHSASNFTNTNNYFTSVPKNFMELLTNQEAQQWVSGWRLNADSVLWGGVKVFMVKPEEPFQPVKEATQL [H215V],0.0584,0.0653,0.0487,–,–,0.0544,0.0668,0.0395,0.0637,0.0544,0.0529,0.0788,–,–,0.0588,0.0703,0.0473,–
MGESLFKGPRDYNPISSSICHLTNESDGHTTSLYGIGFGPFIITNKHLFRRNNGTLVVQSLHGVFKVKDTTTLQQHLVDGRDMIIIRMPKDFPPFPQKLKFREPQREERICLVTTNFQTKSMSSMVSDTSCTFPSGDGIFWKHWIQTKDGQCGSPLVSTRDGFIVGIHSASNFTNTNNYFTSVPKNFMELLTNQEAQQWVSGWRLNADSVLWGGHKVFMVKPQEPFQPVKEATQL [E223Q],0.0714,–,0.061,–,–,0.0651,0.0557,–,0.0563,–,0.0759,0.064,0.0815,–,–,–,–,–
MGESLFKGPRDYNPISSSICHLTNESDGHTTSLYGIGFGPFIITNKHLFRRNNGTLVVQSLHGVFKVKDTTTLQQHLVDGRDMIIIRMPKDFPPFPQKLKFREPQREERICLVTTNFQTKSMSSMVSDTSCTFPSGDGIFWKHWIQTKDGQCGSPLVSTRDGFIVGIHSASNFTNTNNYFTSVPKNFMELLTNQEAQQWVSGWRLNAYSVLWGGHKVFMVKPEEPFQPVKEATQL [D208Y],0.0649,0.0565,0.0612,0.0614,0.0676,0.0736,–,0.0583,0.0487,0.0537,0.0568,0.044,0.0638,–,0.0584,0.0768,0.0455,0.0802
MGESLFKGPRDYNPISSSICHLTNESDGHTTSLYGIGFGPFIITNKHLFRRNNGTLVVQSLHGVFKVKDTTTLQQHLVDGRDMIIIRMPKDFPPFPQKLKFREPQREERICLVTTNFQTKSMSSMVSDTSCTFPSGDGIFWKHWIQTKDGQCGSPLVSTRDGFIVGIHSASNFTNTNNYFTSVPKNFMELLTNQEAQQWVSGWRLNALSVLWGGHKVFMVKPEEPFQPVKEATQL [D208L],0.0583,0.0753,0.0688,–,0.0736,0.0584,0.0534,–,0.0605,0.0382,–,0.0728,–,–,–,–,–,–
MGESLFKCPRDYNPISSSICHLTNESDGHTTSLYGIGFGPFIITNKHLFRRNNGTLVVQSLHGVFKVKDTTTLQQHLVDGRDMIIIRMPKDFPPFPQKLKFREPQREERICLVTTNFQTKSMSSMVSDTSCTFPSGDGIFWKHWIQTKDGQCGSPLVSTRDGFIVGIHSASNFTNTNNYFTSVPKNFMELLTNQEAQQWVSGWRLNADSVLWGGHKVFMVKPEEPFQPVKEATQL [G8C],–,0.0522,–,–,0.0378,–,0.0921,–,–,–,–,0.055,–,–,–,–,–,–
MGESLFKGPRDYNPISSSICHLTNESDGHTTSLYGIGFGPFIITNKHLFRRNNGTLVVQSLHGVFKVKDTTTLQQHLVDGRDMIIIRMPKDFPPFPQKLKFREPQREERICLVTTNFQTKSMSSMVSDTSCTFPSGDGIFWKHWIQTKDGQCGSPLVSTRDGFIVGIHSASNFTNTNNYFTSVPKNFMELLTNQEAQQWVSGWRLNADSVLWGGHKVFMVKPELPFQPVKEATQL [E224L],0.0695,0.0536,–,–,0.0384,0.0834,0.0522,–,–,–,0.0555,0.0693,0.0593,–,0.0659,0.099,–,–
MGESLFKGPRDYNPISSSICHLTNESDGHTTSLYGIGFGPFIITNKHLFRRNNGTLVVQSLHGVFKVKDTTTLQQHLVDGRDMIIIRMPKDFPPFPQKLKFREPQREERICLVTTNFQTKSMSSMVSDTSCTFPSGDGIFWKHWIQTKDGQCGSPLVSTRDGFIVGIHSASNFTNTNNYFTSVPKNFMELLTNQEAQQWVSGWRLNADIVLWGGHKVFMVKPEEPFQPVKEATQL [S209I],0.0834,–,0.0565,–,–,0.0833,–,–,–,–,0.0735,–,–,–,–,–,–,–
MGESLFKGPRDYNPISSSICHLTNESDGHTTSLYGIGFGPFIITNKHLFRRNNGTLVVQSLHGVFKVKDTTTLQQHLVDGRDMIIIRMPKDFPPFPQKLKFREPQREERICLVTTNFQTKSMSSMVSDTSCTFPSGDGIFWKHWIQTKDGQCGSPLVSTRDGFIVGIHSASNFTNTNNYFTSVPKNFMELLTNQEAQQWVSGWRLNADSVLWGGHVVFMVKPEEPFQPVKEATQL [K216V],0.066,0.0638,0.0607,0.0615,–,0.159,0.0567,–,0.0589,0.0495,–,–,–,–,0.0517,0.075,–,–
MGESLFKGPRDYNPISSSICHLTNESDGHTTSLYGIQFGPFIITNKHLFRRNNGTLVVQSLHGVFKVKDTTTLQQHLVDGRDMIIIRMPKDFPPFPQKLKFREPQREERICLVTTNFQTKSMSSMVSDTSCTFPSGDGIFWKHWIQTKDGQCGSPLVSTRDGFIVGIHSASNFTNTNNYFTSVPKNFMELLTNQEAQQWVSGWRLNADSVLWGGHKVFMVKPEEPFQPVKEATQL [G37Q],–,0.0492,0.042,0.056,0.0613,–,0.0458,0.0551,0.0626,0.0625,0.0846,0.0595,0.0591,0.0448,0.0428,0.0732,–,–
MGESLFKGPRDYNPISSSICHLTNESDGHTTSLYGIGFGPFIITNKHLFRRNNGTLVVQSLHGVFKVKDTTTLQQHLVDGRDMIIIRMPKDFPPFPQKLKFREPQREERICLVTTNFQTKSMSSMVSDTSCTFPSGDGIFWKHWIQTKDGQCGSPLVSTRDGFIVGIHSASNFTNTNNYFTSVPKYFMELLTNQEAQQWVSGWRLNADSVLWGGHKVFMVKPEEPFQPVKEATQL [N186Y],0.0623,–,–,–,–,–,0.0639,–,–,–,–,0.0507,–,–,–,0.0928,–,–
